The labels stand for the following.
B1: LINE1-full (parent)
chain: UACGUAGGUGGUUUUCCCCUGAUAGUGCUAAGGGGGCCUGGAAGUUUGGACUGGGCAGAGCUCAACACAGCGUGGCAAAGUGGCUGUGGCUAGACUGCCUCUCUGGAUUCCUCGUCACUCAGCAGGGCAUCUCUGAGAGAAAUGCC

The source gives no read counts; variants with many changes may rest on few reads.

Variants of B1 are the subject of the data set. Description: self-cleavage, relative activity (ratio to wild type); higher = more cleavage; in vitro, sequencing; the parent is a self-cleaving ribozyme.
As for UACGUAGGUGGUUUUCCCCUGAUAGUGCUAAGGGGGCCUGGGAGUUUGGACUGGGCAGAGCUCAACUCAGCGUGGCAAAGUGGCUGUGGCUAGACUGCCUCUCUGGAUUCCUCGUCACUCAGCAAGGCAUCUCUGAGAGAAAUGCC [A42G A67U G125A], the self-cleavage came out at 0.2.
With UUCAUAGGUGGUUUUCCUCUGAUAGUGCUAAGGGGGCCUGGAAGUUUGGACUGGGCAGAGCUCAACACAGCGUGGCAAAGCGGCUGUGGCUAGACUGCCCCUCUGGAUUCCUCGUCACUCAGCAGGGCAUCUCUGAGAGAAAUGCC [A2U G4A C18U U81C U100C] the figure was 0.
The value for UACGUAGGUGGUUUUCCCCUGAUAGUGCUAAGGGGGCCUGGAAGUAUGGGCUGGGCAGAGCUCAACACAGCGUGGCAAAGUGGCUGUGGCUAGACUGCCCCUCUGGAUUCCUCGUCACUCAGCAGGGCAUCUCUGAGAGAAAUGCC [U46A A50G U100C] was 0; that for UACGUAGGUGGUUUUCCCCUGAUUGUGCUAAGGGGGCCAGGAAGUUUGGACUGGGCAGAGCUCAACACAGCGUGGCAAAGUGGCUGUGGCUAGACUGCCUCUCUGGAUUCCUCGUCACUCAGCAGGGCAUCUCUGUGAGAAAUGCC [A24U U39A A136U] was 1.31.
UACGUAGGUGGUUUUCCCCUGACAGUGCUAAGGGGGCCUGGGAGUUUGGUCUGGGCAGAGCUCAACACAGCGUGGCAAAGUGGCUGUGGCUAGACUGCCCCUCUGGAUUCCUCGUCACUCAGCAGGGCAUCUCUGAGAGAAAUGCC [U23C A42G A50U U100C]: the self-cleavage was determined as 1.88.
With UGCGUAGGUGGUUUUCCCCUGAUAGUGCUAAGGGGUCCUGGAGGUUUGGACUGGGCAGAGCUCAACACAGCGUGGCAAAGUGGCGGUGGCUAGACUGCCUCUCUGGAUUCCUCGUCACUCAGCAGGGCAUCUCUGAGAGAGAUGCC [A2G G36U A43G U85G A141G] the figure was 0.13.
With UACGUAGGUGGUUUUCCCCUGAUAGUGCUAAGGGGGCCUGGAAGUUUGGUCUGGGCAGAGCUCAACACGGCGUGGCAAAGUGGCUGUGGCUUGACUGCCUCUCUGGAUUCCUCGUCACUCAGCAGGGCAUCUCUGAGAGAAGUGCC [A50U A69G A92U A142G] the figure was 0.22.
With UACGUAGGUGGUUUUCCCCUGAUAGUGCUAAGGGGGCCUGGAGGUCUGGACUGGGCUGAGCUCAACACAGCGUGGCAAAGUGGCUGUGGCUAGACUGCCUCUCUGGAUUCCUCGUCACUCAGCAGGGCAUCUCUGAGGGAAAUGCC [A43G U46C A57U A138G] the figure was 0.28; with UACGUAGGUGGUUUUCCCCUGAUAGUGCUAAGGGGGCCUGGAGGUUUGGAUUGGGCAGAGCUCAGCACAGCGUGGCAAAGUGGCUGUGGCUGGACUGCCUCUCAGGAUUCCUCGUCACUCAGCAGGGCAUCUCUGAGAGAAAUGCC [A43G C51U A65G A92G U104A], 0.17; with UACGUAGGUGGUCUUCCCCUGAUAGUGCUAAGGGGGCCUGGAAGUUUGGACUGGGCAGAGCUCAACACAGCGGGGCAAAGUGGCUGUGGCUAGACUGCCUCUCUGGAUUCCUCGUCACUCAGCAGGGCAUCUCUGGGAGAAAUGCC [U13C U73G A136G], 2.15.
For the variant UACGUAGGUGGUUUACCCCUGAUAGUGCGAAGGGGGCCUGGAAGUUUGGACUGGGCAGAGCUCAACACAGCGGGGCAAAGUGGCUGUGGCUAGACUGCCUCUCUGGAUUCCUCGUCACUCAGCAGGGCAUCUCUGAGAGAAAUGCC [U15A U29G U73G], the self-cleavage amounted to 1.31.
On to UACGAAGGUGGUUUUCCCCUGAUAGUGCUAAGGGGGCCCGGAAGUUUGGACUGGGCAGAGCUCAACACAGCGUGGCAAAGUGGCUGUGGCUAGACUGCUUCUCUGGAUUCCUCGUCACUCAGCAGGGCAUCUCUGAGAGAAAUGCC [U5A U39C C99U], for which the self-cleavage came out at 0.16.
Turning to UACGUAGGUGGUUUUCCCCUGAUAGUGCUAAGGGGGCCUGGAAGUUUGGACUGGGCAGAGCUCAACACAGCGUGGCAAAGUGGCUGUGGCCAGACUGCCUCUCUGGAUUCCUCGUCGCUCAGCAGGGCAUCUCUGGGAGAAAUGCC [U91C A117G A136G], the self-cleavage is 1.01.
With UACGUAGGCGGUUUUCCCCUGAUAGUGCUAAGGGGGCCUGGAAGUUUGGACUGGGCAGAGCUCUACACAGCGUGGCAAAGUGGCUGUGGCUAGACUGCCUCUCUGGAUUCCACGUCACUCAGCAGGGCAUCUCUGAGAGAAAUGCC [U9C A64U U112A] the figure was 0.13.
For the variant UACGUAGGUGGUUUUCCCCUGAUAGUGCUAAGGGGGCCUGGAAGCUUGGACUGGGCAGAGCUCAACACAGCGUGGCAAAGUGGCUGUGGCUAGACUGCCUCUCUAGAUCCCUCGUCACUCAGCAGGGCAUCUCUGAGAGAAAUGCC [U45C G105A U109C], the self-cleavage came to 1.49.
The value for UACGUAGGUGGUUUUCCCCUGAUCGUGCUAAGGGGGCCUGGGAGUUUGGACUGGGCAGAGCUCAACACAGCGUGGCAAAGUGGCUGUGGCUAGACUGCCUCUCUGGAUUCCUCGUCGCUCAGCAGGGCAUCUCUGAGAGAAAUGCC [A24C A42G A117G] was 2.3; that for UACGUAGGUGGUUUUCCCCUGAUAGUGCUAAGGGGGCCUGGAAGCUUGGACUGGGCAGAGCUCAACACAGCGUGGCAAAGUGGCUGUGGCUAGACUGCCUCUCUGAAUCCCUCGUCACUCAGCAGGGCAUCUCUGAGAGAAAUGCC [U45C G106A U109C] was 0.71.
The value for UACGUAGGUGGCUUUCCCCUGAUAGUGCUAAGGGGGCCUGGAAGUUUGGACUGGGCGGAGCCCAACACAGCGUGGCAAAGUGGCUGUGGCUAGACUGCCUCUCUGGAUUCCUCGUCACUCAGCAGGGCAUCUCUGAGAGAAAUGCC [U12C A57G U62C] was 0.14; that for UACGUAGGUGGCUUUCCCCUGAUAGUGCUAAGGGGGCCUGGAGGUUUGGACUGGGCAGAGCUCAACACAGCGUGGCAAAGUGGCUGUGGCUGGACUGCCUCCCUGGAUUCCUCGUCACUCAGCAGGGCAUCUCUGAGAGAAAUGCC [U12C A43G A92G U102C] was 0; that for UACGUAGGUGGUUUCCCCCUGAUAGUGCUAAGGGGGCCUGGAAGUUUGGACUGGGCAGAGCUCAACACGUCGUGGCAAAGUGGCUGUGGCUAGACUGCCUCUCUGGAUUCCUCGCCACUCAGCAGGGCAUCUCUGAGAGAAAUGCC [U15C A69G G70U U115C] was 0.12.
